l = locked nucleic acid (LNA); d = 2'-deoxy (DNA)
Experiments:
Format in all cases: binding
[1] = tested on: RNA 10 mers of poly A 5′-(AAAAAAAAAA)-3′; conditions: target 5′-(AAAAAAAAAA)-3′; 200 mM KCl; vs native Compound 33
[2] = tested on: DNA 10 mers of poly A 5′-(AAAAAAAAAA)-3′; conditions: target 5′-(AAAAAAAAAA)-3′; 200 mM KCl; vs native Compound 33
[3] = tested on: RNA target strands (10 mers of poly A and mismatch strands); conditions: target 5′-(AAAAAAAAAA)-3′; 100 mM NaCl; vs native Compound 33
[4] = tested on: DNA target strands (10 mers of poly A and mismatch strands); conditions: target 5′-(AAAAAAAAAA)-3′; 100 mM NaCl; vs native Compound 33

Row | Substance | ΔTm/Unit modification, RNA [1] | ΔTm/Unit modification, DNA [2] | ΔTm/Unit modification, RNA [3] | ΔTm/Unit modification, DNA [4]
1 | 5′-d(TTTTTTTTTT)-3′ [Compound 44] (TTTTNTTTTT; sugars from the 5' end d4 l1 d5, backbone and the base at N not given here) [oligonucleotide containing LNA-T, manufactured by Gene Design Inc] | (+6.0) ° C. | (+0.0) ° C. |  | 
2 | 5′-d(TTTTtTTTTT)-3′ (TTTTNTTTTT; guanidine-bridged nucleic acid; Compound 29; Guanidine-Bridged Nucleic Acid) [t: guanidine-bridged nucleic acid, produced using Compound 28] | (+5.0) ° C. | (+5.0) ° C. | (+5.0) ° C. | (+4.0) ° C.
3 | 5′-d(TTTTtTtTTT)-3′ [Compound 30] | (+5.5) ° C. | (+8.5) ° C. | (+5.5) ° C. | (+8.0) ° C.
4 | 5′-d(TTTtttTTTT)-3′ [Compound 42] | (+7.3) ° C. | (+10.0) ° C. |  | 
5 | 5′-d(TTtTtTtTTT)-3′ [Compound 31] | (+7.3) ° C. | (+10.7) ° C. | (+7.0) ° C. | (+10.0) ° C.
6 | 5′-d(tTtTtTtTtT)-3′ [Compound 43] | (+8.8) ° C. | (+10.8) ° C. |  | 

From US10377789B2, “Oligonucleotide and artificial nucleoside having guanidine bridge” (OSAKA UNIVERSITY, priority 2012, dated 2019)
